± gives the standard deviation of the averaged measurements. Over roughly 33,000 sequences, “E-score (dimensionless, -0.5 to 0.5)” has its median near -0.049; the highest 2% begin near 0.37. The list shows a part of the results.
The sequences below were run on T1, PmTbr T-box DNA-binding domain (GST fusion) (assay: PBM E-score of 8-mer (E-score (dimensionless, -0.5 to 0.5)); Tbr is Tbrain of the sea star Patiria miniata (Pm) or the sea urchin Strongylocentrotus purpuratus (Sp); higher = stronger binding preference; most listed sequences are background and not binding sites). Conditions: the construct has about 5 more residues each side.
T1 sequence: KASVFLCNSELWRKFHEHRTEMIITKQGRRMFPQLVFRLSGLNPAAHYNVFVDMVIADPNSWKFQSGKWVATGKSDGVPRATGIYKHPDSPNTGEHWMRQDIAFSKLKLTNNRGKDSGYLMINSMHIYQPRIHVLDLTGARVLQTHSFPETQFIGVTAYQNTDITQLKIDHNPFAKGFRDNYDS
How it was run: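 Universal Agilent oligonucleotide arrays, made double-stranded by primer extension, were incubated with 200 nM GST-fused Tbr T-box DNA-binding domain in PBS (pH 7.5). The protein was expressed in BL21 E. coli at 20 °C and purified by glutathione affinity chromatography. After scanning and quantification, the Universal PBM Analysis Suite assigned an enrichment E-score to each ungapped 8-mer, averaged over duplicate arrays.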

Sequence	PBM E-score of 8-mer
ATTTCTCG	0.0909 ± 0.072
AGGAGCGC	0.014 ± 0.096
GGCTGATA	-0.177 ± 0.022
GTACGGAC	-0.204 ± 0.007
GAATTACC	-0.0978 ± 0.03
GGCTGCCC	-0.198 ± 0.092
ACGAGCGG	-0.2651 ± 0.00084
GCGCCAGC	0.152 ± 0.0098
ATCCCGGA	-0.189 ± 0.013
CAACCAGC	-0.0243 ± 0.034
ACAGGGGG	-0.0905 ± 0.085
AAATGGAT	-0.118 ± 0.16
CGAGTATC	-0.0272 ± 0.042
GCCGAGAA	0.0847 ± 0.017
AGTTTCTA	-0.162 ± 0.0097
CTTTCAGC	-0.0875 ± 0.067
CGGCTATA	-0.139 ± 0.00038
AACCCCTT	-0.119 ± 0.016
TCGATTAA	-0.11 ± 0.071
AGTGCGCC	-0.0423 ± 0.032
CAAGCACC	0.129 ± 0.016
CTTACCTA	-0.153 ± 0.059

Sequence	PBM E-score of 8-mer
GACTCGAC	0.0517 ± 0.016
CTCCAAAA	-0.0316 ± 0.018
ACCACACG	0.214 ± 0.021
GCCTGGTA	-0.0642 ± 0.0014
CATGGAGG	-0.0825 ± 0.028
CTAGCGCC	0.316 ± 0.015
GGTCTAAC	-0.0483 ± 0.015
CACTACCA	0.0676 ± 0.018
AAGTGTGC	0.368 ± 0.0052
GCTGTTAC	0.0246 ± 0.042
AACCAACT	-0.21 ± 0.1
GTAGAGAC	-0.16 ± 0.0056
ATTTGGTC	-0.154 ± 0.024
ACATAACC	0.0736 ± 0.062
ACGCATCC	0.000205 ± 0.0071
CAGCGTGG	-0.168 ± 0.1
CCTTTTGA	0.0173 ± 0.049
GCGTACAA	-0.114 ± 0.0045
CACGGCTC	0.052 ± 0.075
ACTATGCG	0.153 ± 0.013
CTCGCATC	0.176 ± 0.033
AGCATGAA	0.059 ± 0.017

Sequence	PBM E-score of 8-mer
ATGACCTC	-0.0665 ± 0.086
AATGGTCT	-0.0374 ± 0.12
GGGCAAGA	-0.204 ± 0.023
ACTCAGCG	0.0254 ± 0.026
GATTAGAA	-0.177 ± 0.0093
CTTCAGAC	-0.158 ± 0.061
CTATGTTA	-0.0642 ± 0.038
CATGTACA	-0.142 ± 0.046
CCGTTTAC	0.0341 ± 0.013
AACTGCGC	-0.0804 ± 0.038
AGGGGAAA	-0.17 ± 0.026
AATTGGCG	0.0711 ± 0.011
CCGTGACG	0.166 ± 0.029
AAGATTTG	-0.0886 ± 0.055
CAACGTCC	-0.158 ± 0.019
GTAGCCAC	-0.214 ± 0.11
GATGATGA	-0.189 ± 0.025
ATTACTCC	-0.0311 ± 0.025
AAGATTGT	0.189 ± 0.042
GAGTAGGA	-0.166 ± 0.024
CAACTAGA	-0.123 ± 0.065
AAGATATC	-0.0286 ± 0.018

Sequence	PBM E-score of 8-mer
CTATTTGC	-0.00357 ± 0.0087
CCTCGTTA	-0.192 ± 0.065
CTTATATA	0.0789 ± 0.052
CGCACTTC	0.324 ± 0.0058
AAATTACA	0.0517 ± 0.2
GCGGCTTA	-0.145 ± 0.0061
GTCAAATA	0.0141 ± 0.005
ACATCTTC	-0.0652 ± 0.035
AAGAGGCT	-0.1486 ± 0.0013
GGTCGGCA	-0.101 ± 0.02
GATCGCGC	0.289 ± 0.018
TCCCTAGA	-0.22 ± 0.045
CGTTCATA	-0.113 ± 0.039
CAACCTGA	-0.03504 ± 0.00031
CACGATAA	0.0347 ± 0.032
CATGCCGC	0.016 ± 0.073
ACCGTTAA	0.1245 ± 0.00073
GAGTTTGA	0.0377 ± 0.06
ACCTGGCC	-0.0129 ± 0.034
CATATACG	-0.13 ± 0.02
ACGGAAAC	0.101 ± 0.029
AACAAGGA	-0.0644 ± 0.059

Sequence	PBM E-score of 8-mer
GGAGCTCC	-0.355 ± 0.038
CCTGGGCG	0.145 ± 0.087
ATTTATCG	0.194 ± 0.021
CGAGTGCC	0.154 ± 0.014
CCTACCAG	0.00153 ± 0.031
GCATACTA	-0.108 ± 0.094
CCTAGCTA	0.00928 ± 0.0051
CCGGGTCA	-0.0462 ± 0.096
CAGAAAGA	-0.00519 ± 0.014
CACATTTA	0.23 ± 0.1
TGAAATCA	0.127 ± 0.024
CCCATTCA	-0.0535 ± 0.018
ACTTGAAA	-0.142 ± 0.061
ATACAACC	0.0288 ± 0.011
ACCGATGA	-0.0124 ± 0.019
CGTTTGGC	0.0402 ± 0.11
AGGTTGTG	0.16 ± 0.052
ATGGCCGC	-0.107 ± 0.026
CACGTAGA	0.0877 ± 0.045
CGACTAAC	0.114 ± 0.016
GAACCCCA	-0.161 ± 0.09

From the supplement of paper PMC4166925
